Data as given in the supplement of paper PMC4604168 (melanoma cell lines).
The list shows a part of the results. Repeats are few or missing, and single values can be far off.

Assays:
Assay in all cases: cell count relative to DMSO control; melanoma cells; higher = more viable cells
Details in all cases: library dose: standard library concentration; 72 h
501Mel = test system: 501Mel
A101D = test system: A101D
A2058 = test system: A2058
A375 = test system: A375
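Also: cells treated in 1,536-well plates, then fixed and DAPI-stained, with nuclei counted from automated high-throughput microscope images.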

## Cc1ccc(NC(=O)c2cccc(N(C)C)c2)cc1NC(=O)c1ccc(O)cc1 + c1cc(-c2cnn3cc(-c4ccc(OCCN5CCCCC5)cc4)cnc23)ccn1 [Dorsomorphin] (first compound 10 µM, partner dose 2 µM)
501Mel
  cell count: 43.5%
A101D
  cell count: 79.2%
A2058
  cell count: 95.4%
A375
  cell count: 71.6%

## COc1cc2c(Oc3ccc4[nH]c(C)cc4c3F)ncnc2cc1OCCCN1CCCC1 [cediranib] + O=C(Nc1ccccc1)c1cc([N+](=O)[O-])ccc1Cl [GW9662] (first compound 2 µM, partner dose 10 µM)
501Mel
  cell count: 67.1%
A101D
  cell count: 75.6%
A2058
  cell count: 89.5%
A375
  cell count: 142%

## COc1cc2c(Oc3ccc4[nH]c(C)cc4c3F)ncnc2cc1OCCCN1CCCC1 [cediranib] + O=C1NC(=O)/C(=C/c2ccc(-c3ccc(F)cc3O)o2)S1 [AS252424] (first compound 2 µM, partner dose 5 µM)
501Mel
  cell count: 74.8%
A101D
  cell count: 123%
A2058
  cell count: 93.8%
A375
  cell count: 145%

## CCCCCCCCc1ccc(CCC(N)(CO)CO)cc1 [fingolimod] + O=C(O)C(=O)Nc1sc2c(c1C(=O)O)CCNC2 [TCS401] (first compound 10 µM, partner dose 8.33333 µM)
501Mel
  cell count: 2.57%
A101D
  cell count: 17.7%
A2058
  cell count: 6.14%
A375
  cell count: 86.8%

## CC(C)(C)c1cnc(CSc2cnc(NC(=O)C3CCNCC3)s2)o1 + O=c1cc(-c2cccc3c2Sc2ccccc2S3)oc(N2CCOCC2)c1 [KU55933] (first compound 0.05 µM, partner dose 5 µM)
501Mel
  cell count: 92.2%
A101D
  cell count: 78.6%
A2058
  cell count: 73.3%
A375
  cell count: 105%

## CCCCCCCCc1ccc(CCC(N)(CO)CO)cc1 [fingolimod] + O=C1NC(=O)/C(=C/c2ccc(-c3ccc(F)cc3O)o2)S1 [AS252424] (first compound 10 µM, partner dose 5 µM)
501Mel
  cell count: 3.02%
A101D
  cell count: 4.08%
A2058
  cell count: 3.13%
A375
  cell count: 26.6%

## CCCCCCCCc1ccc(CCC(N)(CO)CO)cc1 [fingolimod] + CC(C)CCN1c2nc(Nc3cc(F)c(O)c(F)c3)ncc2N(C)C(=O)C1C [BID1870] (first compound 10 µM, partner dose 1 µM)
501Mel
  cell count: 1.83%
A101D
  cell count: 7.6%
A2058
  cell count: 43.3%
A375
  cell count: 99.1%

## NC(=O)c1ccc(N(C(N)=O)c2c(F)cccc2F)nc1-c1ccc(F)cc1F + COC(=O)c1sccc1S(=O)(=O)Nc1ccc(Nc2ccccc2)cc1OC [GSK0660] (first compound 2 µM, partner dose 5 µM)
501Mel
  cell count: 88.7%
A101D
  cell count: 118%
A2058
  cell count: 74.1%
A375
  cell count: 102%

## COc1cc2c(Oc3ccc4[nH]c(C)cc4c3F)ncnc2cc1OCCCN1CCCC1 [cediranib] + N#Cc1c(O)c2c(-c3ccc(-c4ccccc4O)cc3)csc2[nH]c1=O [A769662] (first compound 2 µM, partner dose 10 µM)
501Mel
  cell count: 76.2%
A101D
  cell count: 106%
A2058
  cell count: 96.2%
A375
  cell count: 155%

## NC(=O)c1ccc(N(C(N)=O)c2c(F)cccc2F)nc1-c1ccc(F)cc1F + O=S(=O)(c1ccccc1)N(CC(F)(F)F)c1ccc(C(O)(C(F)(F)F)C(F)(F)F)cc1 [T0901317] (first compound 2 µM, partner dose 7 µM)
501Mel
  cell count: 71.6%
A101D
  cell count: 92.5%
A2058
  cell count: 116%
A375
  cell count: 91.1%

## NC(=O)c1ccc(N(C(N)=O)c2c(F)cccc2F)nc1-c1ccc(F)cc1F + COc1ccc2c(c1)CCC1C2CCC2(C)C(NCCCCCCN3C(=O)C=CC3=O)CCC12 [U73122] (first compound 2 µM, partner dose 2 µM)
501Mel
  cell count: 89.3%
A101D
  cell count: 67.6%
A2058
  cell count: 58.6%
A375
  cell count: 68%

## CC(C)(C)c1cnc(CSc2cnc(NC(=O)C3CCNCC3)s2)o1 + O=C1NC(=O)/C(=C/c2ccc(-c3ccc(F)cc3O)o2)S1 [AS252424] (first compound 0.05 µM, partner dose 5 µM)
501Mel
  cell count: 107%
A101D
  cell count: 110%
A2058
  cell count: 108%
A375
  cell count: 105%

## CCCCCCCCc1ccc(CCC(N)(CO)CO)cc1 [fingolimod] + COc1ccc2c(c1)CCC1C2CCC2(C)C(NCCCCCCN3C(=O)C=CC3=O)CCC12 [U73122] (first compound 10 µM, partner dose 2 µM)
501Mel
  cell count: 1.68%
A101D
  cell count: 1.65%
A2058
  cell count: 6.41%
A375
  cell count: 69.7%

## CCc1ccc(CCOc2ccc(CC3SC(=O)NC3=O)cc2)nc1 (configuration not stated) [pioglitazone] + Oc1cc(-c2nc(-c3ccccc3)[nH]c2-c2ccncc2)ccc1Cl [L779450] (first compound 10 µM, partner dose 1 µM)
501Mel
  cell count: 67.4%
A101D
  cell count: 78.5%
A2058
  cell count: 95.2%
A375
  cell count: 91.9%

## CCc1ccc(CCOc2ccc(CC3SC(=O)NC3=O)cc2)nc1 (configuration not stated) [pioglitazone] + CCCCCCCCCCCC1=C(O)C(=O)C=C(O)C1=O [Embelin] (first compound 10 µM, partner dose 6 µM)
501Mel
  cell count: 103%
A101D
  cell count: 94%
A2058
  cell count: 103%
A375
  cell count: 110%

## CCc1ccc(CCOc2ccc(CC3SC(=O)NC3=O)cc2)nc1 (configuration not stated) [pioglitazone] + Cc1cc([N+](=O)[O-])ccc1NS(=O)(=O)c1cc(Cl)ccc1Cl [FH535] (first compound 10 µM, partner dose 5 µM)
501Mel
  cell count: 83%
A101D
  cell count: 69.9%
A2058
  cell count: 86.4%
A375
  cell count: 80.1%

## CC(C)(C)c1cnc(CSc2cnc(NC(=O)C3CCNCC3)s2)o1 + CCc1ccc(CCOc2ccc(CC3SC(=O)NC3=O)cc2)nc1 [pioglitazone] (first compound 0.05 µM, partner dose 10 µM)
501Mel
  cell count: 112%
A101D
  cell count: 80.1%
A2058
  cell count: 87.7%
A375
  cell count: 94.3%

## NC(=O)c1ccc(N(C(N)=O)c2c(F)cccc2F)nc1-c1ccc(F)cc1F + CCN(CC)CCCCNc1ncc2cc(-c3cc(OC)cc(OC)c3)c(NC(=O)NC(C)(C)C)nc2n1 [PD173074] (first compound 2 µM, partner dose 0.5 µM)
501Mel
  cell count: 111%
A101D
  cell count: 118%
A2058
  cell count: 121%
A375
  cell count: 136%

## CN(NC(=O)CC(=O)NN(C)C(=S)c1ccccc1)C(=S)c1ccccc1 + CCc1ccc(CCOc2ccc(CC3SC(=O)NC3=O)cc2)nc1 [pioglitazone] (first compound 0.03 µM, partner dose 10 µM)
501Mel
  cell count: 17.8%
A101D
  cell count: 60.4%
A2058
  cell count: 23.5%
A375
  cell count: 120%

## Cc1ccc(NC(=O)c2cccc(N(C)C)c2)cc1NC(=O)c1ccc(O)cc1 + O=S(=O)(c1ccccc1)N(CC(F)(F)F)c1ccc(C(O)(C(F)(F)F)C(F)(F)F)cc1 [T0901317] (first compound 10 µM, partner dose 7 µM)
501Mel
  cell count: 60.5%
A101D
  cell count: 79.7%
A2058
  cell count: 86.3%
A375
  cell count: 78.7%

## CCc1ccc(CCOc2ccc(CC3SC(=O)NC3=O)cc2)nc1 (configuration not stated) [pioglitazone] + COc1cc(N2CCC(N3CCN(C)CC3)CC2)ccc1Nc1ncc(Cl)c(Nc2ccccc2S(=O)(=O)C(C)C)n1 [NVP-TAE684] (first compound 10 µM, partner dose 0.4 µM)
501Mel
  cell count: 97.7%
A101D
  cell count: 94.6%
A2058
  cell count: 78.4%
A375
  cell count: 86.2%

## COc1cc2c(Oc3ccc4[nH]c(C)cc4c3F)ncnc2cc1OCCCN1CCCC1 [cediranib] + COC(=O)c1sccc1S(=O)(=O)Nc1ccc(Nc2ccccc2)cc1OC [GSK0660] (first compound 2 µM, partner dose 5 µM)
501Mel
  cell count: 72.3%
A101D
  cell count: 112%
A2058
  cell count: 93.8%
A375
  cell count: 97.9%

## Cc1ccc(NC(=O)c2cccc(N(C)C)c2)cc1NC(=O)c1ccc(O)cc1 + COc1cc2ncnc(Nc3ccc(Oc4ccccc4)cc3)c2cc1OC [SrcI1] (first compound 10 µM, partner dose 10 µM)
501Mel
  cell count: 61.6%
A101D
  cell count: 65.3%
A2058
  cell count: 87.4%
A375
  cell count: 133%

## NC(=O)c1ccc(N(C(N)=O)c2c(F)cccc2F)nc1-c1ccc(F)cc1F + COc1ccc(COc2ccc(Cc3cnc(N)nc3N)cc2OC)cc1 [GW2580] (first compound 2 µM, partner dose 5 µM)
501Mel
  cell count: 106%
A101D
  cell count: 94%
A2058
  cell count: 97.3%
A375
  cell count: 147%

## COc1cc2c(Oc3ccc4[nH]c(C)cc4c3F)ncnc2cc1OCCCN1CCCC1 [cediranib] + COc1ccc(COc2ccc(Cc3cnc(N)nc3N)cc2OC)cc1 [GW2580] (first compound 2 µM, partner dose 5 µM)
501Mel
  cell count: 73.8%
A101D
  cell count: 112%
A2058
  cell count: 98%
A375
  cell count: 109%

## NC(=O)c1ccc(N(C(N)=O)c2c(F)cccc2F)nc1-c1ccc(F)cc1F + Cn1cc(/C=C2\C(=O)Nc3cccnc32)c2ccccc21 [GW441756] (first compound 2 µM, partner dose 2 µM)
501Mel
  cell count: 74.8%
A101D
  cell count: 95.3%
A2058
  cell count: 95.1%
A375
  cell count: 165%

## CC(C)(C)c1cnc(CSc2cnc(NC(=O)C3CCNCC3)s2)o1 + COc1ccc2c(c1)CCC1C2CCC2(C)C(NCCCCCCN3C(=O)C=CC3=O)CCC12 [U73122] (first compound 0.05 µM, partner dose 2 µM)
501Mel
  cell count: 78.2%
A101D
  cell count: 85.8%
A2058
  cell count: 76.1%
A375
  cell count: 78.9%

## NC(=O)c1ccc(N(C(N)=O)c2c(F)cccc2F)nc1-c1ccc(F)cc1F + C[C@@H]1CCN(C(=O)CC#N)C[C@@H]1N(C)c1ncnc2[nH]ccc12 [CP690550] (first compound 2 µM, partner dose 5 µM)
A101D
  cell count: 92.5%
A2058
  cell count: 105%
A375
  cell count: 109%

## NC(=O)c1ccc(N(C(N)=O)c2c(F)cccc2F)nc1-c1ccc(F)cc1F + CS(=O)(=O)CCNCc1ccc(-c2ccc3ncnc(Nc4ccc(OCc5cccc(F)c5)c(Cl)c4)c3c2)o1 [lapatinib] (first compound 2 µM, partner dose 4 µM)
A101D
  cell count: 94.9%
A2058
  cell count: 87%
A375
  cell count: 108%

## NC(=O)c1ccc(N(C(N)=O)c2c(F)cccc2F)nc1-c1ccc(F)cc1F + Cn1c(=O)n(-c2ccc(C(C)(C)C#N)cc2)c2c3cc(-c4cnc5ccccc5c4)ccc3ncc21 [NVP-BEZ235] (first compound 2 µM, partner dose 0.02 µM)
A101D
  cell count: 62.2%
A2058
  cell count: 60.2%
A375
  cell count: 113%
